# Measurements taken from the supplement of paper PMC11417369.
# The list shows a part of the results.
# Test system: PF3D7_0420300 AP2 domain 1 (GST-tagged)
# Experiment: gcPBM binding intensity (ln(normalized median fluorescence intensity)); higher = stronger DNA binding
# Summary of the method: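 Binding intensity values are the highest Masliner-normalised natural-log median intensity among replicate spots of either probe orientation. The binding step lasted 1 h in 1× PBS with 1% milk, 0.2 mg/ml BSA, 0.5% salmon testes DNA and 0.03% Triton X-100, using GST-tagged P. falciparum DNA-binding domains expressed in E. coli on an Agilent 4 × 180k array of primer-extended double-stranded 36-bp intergenic genomic probes plus negative controls. Alexa488 anti-GST antibody and a 488 nm scan detected bound protein.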
row,Sequence,gcPBM binding intensity (ln)
1,TATGGAATAAATTTATCCATACATCTTATAACATAT [XGTACX_negctrl_site500],9.11
2,AGCTATATAAATAATACATGCATTGTTCAGGTATTT [TGCATGCA_site964],9.16
3,ATTTATAATATTCAAGTGCATATATATTTTTTACTT,9.32
4,AAAAAATTATATAATAATAGAACTATACATTTTATT [GTGCAC_negctrl_site645],9.09
5,ACATAATATATATATTGTACAAATATATTATTGTTA [XGTACX_site3385],9.22
6,AGCCACGGGTTATATACACACATAATCAAATAAAAT [CACACA_site6117],9.62
7,TATGTAATAAAATATACACACAATATACTTATATAT [CACACA_site3682],9.55
8,ATTTTTAATGGATAAGTGCATAATATTATGATGCAA,9.09
9,TGTATTCCTTTTTATAGTACAATTTAAAAGTATAAA [XGTACX_site2045],8.97
10,GTACGTTTCTCCAGACTGCACTATACGACTCGTACA [GTGCAC_site9771],9.21
11,AGAAAGATGCAAGAAACATGCAAAAAAAAAATTTCT [TGCATGCA_site725],9.15
12,CACAAATATACAAATACACACAAATATACTCATATA [CACACA_site5339],9.87
13,ATACAAAAAATCACATGTACATATTCTTAAATGGTA [XGTACX_site8502],9.34
14,AATAATAATTTGAATACACACAATAATATATATATA [CACACA_site2059],9.56
15,TTATATCATTTTCCTGCACACATAAATTTATATAAT [CACACA_site8257],9.62
16,ACAAAATATACAAAATGTACAAAATATACAAAATGT [XGTACX_site6467],9.44
17,CATATGTATTTATTCACACATATATATATATATATA [CACACA_site4207],9.31
18,TTATTCTAAAAGTGTTTGCACTTTTATAATCATATA [GTGCAC_site9929],8.85
19,TATACAGATAAATACACACACACATATATATATATA [CACACA_site4845],10
20,AATACATTTATGAGCTGTACACATTTATTTGAGCTA [XGTACX_site7695],9.13
21,AGTGTAATTTTCCACTGTACTTTTCTTGTATATAAT [XGTACX_site4201],9.45
22,ATATATATTAATATTTGTACATAAAATTATTTCAAT [XGTACX_site5364],9.05

row,Sequence,gcPBM binding intensity (ln)
1,AAAGTAACACACTAATATTTTAACAAATAATATATA [GTGCAC_negctrl_site132],9.43
2,TACATAAAATATATCACACATATAATATATATATAT [CACACA_site5834],9.25
3,AAAAAAAAAAAAAAATATAAATATATATATATATAT [GTGCAC_negctrl_site28],8.79
4,AATTAAATATTATAAACACACATATATATTATTTTT [CACACA_site865],9.37
5,AAACGAACATATAAATGTACATATATATACATATAT [XGTACX_site8086],9.43
6,TATGTATTAAATTTTACACACATGATTCTCTATATA [CACACA_site2298],9.71
7,ATTGTAAATATAGAAGTGCAAAAGGGTATGAAATGA,9.63
8,TACAAAAAAAATGTATTTAGGACATATATATGTTTA [XGTACX_negctrl_site455],9.02
9,TATATAAAATAATAATGTACTCATTAAAATTATAGA [XGTACX_site4507],9.06
10,AAAGAAAAAAAAAAAAAAAAAAAAAAAATTATACAT [CACACA_negctrl_site7],9.06
11,ATGTATCCAATAGGAGTGCATAATTCTATTAACACC,9.24
12,TACATATTGCACAAATAAAAAAGAACAAAAAAAAAA [CACACA_negctrl_site1200],9.32
13,GAATTTCGATATATGTGTACGCATTTGTATTATAGG [XGTACX_site6332],9.33
14,ATATATATATATATATGTACATATATTCGATTATTA [XGTACX_site557],9.27
15,ATAATATTTCTTACCTTTGGATGTTCTAATTTTTTT [CACACA_negctrl_site1317],9.5
16,AAAAATAACATATAAACACACATATATATATATATA [CACACA_site3802],9.52
17,TTAATAGAAATACGTGCACACTAAAGGGAAAACAAT [CACACA_site4923],9.76
18,ACAAGTATTAATTACACACTCAAAAAGAAAAAACAA [CACACA_site2281],9.41
19,ATATATTCTATATATACATGCATATATATTATATGT [TGCATGCA_site185],9.15
20,GTTAAATGAAAATATGTACACACTTGAAAATTTTTA [CACACA_site2924],9.27
21,TGAATAAATATGCAGCGTACATAATCCTCTTAAAAT [XGTACX_site8462],9.16
22,ATGCAACTATATATATATATTATATGTATGAATAAT [XGTACX_negctrl_site434],9.26

row,Sequence,gcPBM binding intensity (ln)
1,GTACAAAATTGACAAGTGCAAAAATTAAAAGCAAGA [GTGCAC_site9838],9.48
2,AAAGTATATAGGATACGTACATACATAAATAAATAA [XGTACX_site8216],9.39
3,ATATATATATAAATATGTACATATATTTATTTCTTT [XGTACX_site3784],9.21
4,GTGTGAGCACATTCGGGAGAGTTTTTTTTTTTTTTT [CACACA_negctrl_site1776],9.22
5,TATAAAAATAAGCACACACACAAATATAGATTTATT [CACACA_site6558],10.1
6,TATATTCAAAATGGTACACACAATATTTAATTGTGC [CACACA_site2631],9.37
7,TGACATATAAAATATTCACACACAAGTTATAGTTCT [CACACA_site9209],9.59
8,ACATTTTCTTATAAATGTACATATATATTATTATAT [XGTACX_site4404],9.28
9,AAAACTTTTAAAATTTTGTATTCATTCCTTCAACAA [GTGCAC_negctrl_site697],9.04
10,TTTATAATTCCATAATGTACAAATAAAATAAAAAAT [XGTACX_site663],9.27
11,AAAATTAATGTTGGTTGTACAAAAATTAAATATGGT [XGTACX_site66],9.42
12,AGGAGGATAGTTCACAGTACCCAGTAACTCTACGAG [XGTACX_site2008],8.99
13,GTACAAAGGACTATACATAGAAAAATATATATATAT [XGTACX_negctrl_site164],9.26
14,TATATATACACACACACATGCATGCCGATATATATA [TGCATGCA_site29],10.2
15,AAAAGATATTTGAATATACACACGATTTAAATTTAA [CACACA_site3865],9.39
16,AAAGATTTAATCTATACATGCAAATATATAGAAAAG [TGCATGCA_site373],9.21
17,AATAAAAATAGGAAATGTACACATATATATATATAT [XGTACX_site1853],9.23
18,AGATGCCAAGTATAAAGTACATATCAAAATGTATAT [XGTACX_site456],9.19
19,GAACAAAATTTTATATGTACATAATATTTATATATA [XGTACX_site3667],9.09
20,TTATTTTATTTTTATACACACATGTTTTAATGTTCA [CACACA_site249],9.6
21,TATAAAACACACACACATATATATATATATTTATAT [TGCATGCA_negctrl_site48],10
22,AATTTTAAATTTAATTTACACACTTTTCATAGCATT [CACACA_site9264],9.41

row,Sequence,gcPBM binding intensity (ln)
1,ATTTACAAAAATTTTGTATAAAGGGATTTTAAAATG [TGCATGCA_negctrl_site350],9.04
2,GAAAAAAAAAAAAAAAGTACATTCTCTATTTCATGT [XGTACX_site3209],8.93
3,ATAAATTTAAATAGGAGTACACAGCTTTATATTTTG [XGTACX_site4176],9.31
4,TAATTACCATATGGTACACACATATTTATAGGTATA [CACACA_site7603],9.52
5,ACGTATAATATGTACACACACATATATACCAAAAAA [CACACA_site4661],9.79
6,GATAAAATAATATATAGTACTTTTTTAAAATAAATA [XGTACX_site522],8.94
7,CGCGCACCCAGACACACACACACACCCATATATATA [CACACA_site2203],10.2
8,TGAACATCATTTTTATGTACACACACATATACGTTG [XGTACX_site3864],9.95
9,GACGTGGAAAAAAAAACACACACAAAAAAAAAAAAA [CACACA_site9324],9.51
10,AAAACAAACAAAAAAAAAAAAAAAAATATCAATCTA [TGCATGCA_negctrl_site203],9.13
11,ATATATCATGCCAAGGGTACAAATGTGTAGTTGAAA [XGTACX_site2820],9.38
12,TTTTTTAAATATTATTTTTATGAGTAAATATATTAT [GTGCAC_negctrl_site277],8.92
13,GACAACGTTTCAATGTGTACATATTTATAATATATA [XGTACX_site2427],9.14
14,TATATATATATATATACATGCATTTTTGTTTGCTTA [TGCATGCA_site256],9.15
15,TTTTTTTTTTCTCCTGCATGCAGCATTTATATATTA [TGCATGCA_site390],9.59
16,ATTGAAAAACCGTTTAGTACATATCATCACGTTTGT [XGTACX_site1295],9.19
17,TATATATATATATGTACACACATCAATCATATTAAC [CACACA_site1946],9.64
18,AAAATACGAATATAAACATGCACCATATAGAACAAA [TGCATGCA_site925],9.71
19,TTTTTTTTTTTTTTTACACACTGCATACAAGAAAAA [CACACA_site5642],9
20,TAAAATAAAATAAGTAGTACATATATAATTATATAT [XGTACX_site6733],9.33
21,TACAAATATAGATGCACACACATATACATACCTATA [CACACA_site7094],9.81
22,TTTTTACAAAAAAAAAAAAAAAAAATAAAAATAAAT [CACACA_negctrl_site1738],8.9
